By IC50 is meant the dose at which the fit gives 50% viability; where the fit passes the top or lowest dose, that dose stands as a limit. AUC, from the same fit, is the share of area under the viability curve across the 256-fold dose range: 1 means no effect, lower means more sensitive. For part of these data: An inferred top dose was calculated from the reported fits. For part of these data: Drugs with an entry number were screened twice under separate entries, and the two screens often disagree.
Columns and labels:
Experiment in all cases: Viability of human cancer cell lines after 72 h of drug (GDSC screen)
MG-132 = compound: CC(C)C[C@@H](C=O)NC(=O)[C@H](CC(C)C)NC(=O)[C@H](CC(C)C)NC(=O)OCc1ccccc1 [MG-132]; settings: top dose 1 µM
Description: (§1)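 Human cancer cell lines in 384-well plates, medium with 10% serum, drug for 72 h over a 256-fold dose range (nine 2-fold or five 4-fold steps up to the top dose). Adherent lines were fixed and stained with the nucleic acid dye Syto60, suspension lines read with resazurin; signal relative to control wells, capped at 0 and 100%. One two-parameter sigmoid per drug and line, fitted in a mixed model over all curves with the slope shared within a line.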

AR-42 = compound: CC(C)[C@H](C(=O)Nc1ccc(C(=O)NO)cc1)c1ccccc1 [AR-42]; settings: top dose 5.12 µM; top dose inferred
Description: as §1

GDC0941 = compound: CS(=O)(=O)N1CCN(Cc2cc3nc(-c4cccc5[nH]ncc45)nc(N4CCOCC4)c3s2)CC1 [GDC0941]; settings: top dose 4 µM; screen: GDSC drug entry 1527; top dose inferred
Description: as §1

CEP-701 = compound: C[C@]12O[C@H](C[C@]1(O)CO)n1c3ccccc3c3c4c(c5c6ccccc6n2c5c31)CNC4=O [CEP-701]; settings: top dose 2 µM; top dose inferred
Description: as §1

Pazopanib = compound: Cc1ccc(Nc2nccc(N(C)c3ccc4c(C)n(C)nc4c3)n2)cc1S(N)(=O)=O [Pazopanib]; settings: top dose 8 µM
Description: as §1

SB 216763 = compound: Cn1cc(C2=C(c3ccc(Cl)cc3Cl)C(=O)NC2=O)c2ccccc21 [SB 216763]; settings: top dose 10 µM; top dose inferred
Description: as §1

Row | Cell Line | AUC (MG-132) | IC50 (MG-132) [nM] | AUC (AR-42) | IC50 (AR-42) [nM] | AUC (GDC0941) | IC50 (GDC0941) [nM] | AUC (CEP-701) | IC50 (CEP-701) [nM] | AUC (Pazopanib) | IC50 (Pazopanib) [nM] | AUC (SB 216763) | IC50 (SB 216763) [nM]
1 | CW-2 (large intestine, adherent) | 0.948 | > 1000 | 0.6 | 613 | 0.954 | > 4000 | 0.984 | > 2000 | 0.989 | > 8000 | 0.989 | > 10000
2 | D-263MG (glioma, adherent) | 0.683 | 228 | 0.711 | 1450 | 0.611 | 538 | 0.786 | 1060 | 0.956 | > 8000 | 0.948 | > 10000
3 | D-392MG (glioma, adherent) | 0.668 | 218 | 0.713 | 1610 | 0.922 | > 4000 | 0.683 | 492 | 0.845 | > 8000 | 0.967 | > 10000
4 | D-502MG (glioma, adherent) | 0.862 | > 1000 | 0.649 | 1050 | 0.756 | 2120 | 0.595 | 263 | 0.817 | > 8000 | 0.95 | > 10000
5 | D-542MG (glioma, adherent) | 0.495 | 60.5 | 0.583 | 567 | 0.781 | 2050 | 0.964 | > 2000 | 0.933 | > 8000 | 0.984 | > 10000
6 | DG-75 (Burkitt lymphoma, suspension) | 0.985 | > 1000 | 0.666 | 933 | 0.836 | 2690 | 0.474 | 106 | 0.984 | > 8000 | 0.986 | > 10000
7 | DMS-79 (small cell lung carcinoma, suspension) | 0.986 | > 1000 | 0.698 | 1270 | 0.973 | > 4000 | 0.92 | > 2000 | 0.975 | > 8000 | 0.987 | > 10000
8 | DMS-114 (small cell lung carcinoma, adherent) | 0.896 | > 1000 | 0.769 | 2220 | 0.802 | 2320 | 0.831 | 1540 | 0.955 | > 8000 | 0.985 | > 10000
9 | DSH1 (bladder, adherent) | 0.409 | 35.5 | 0.422 | 198 | 0.92 | > 4000 | 0.78 | 785 | 0.963 | > 8000 | 0.958 | > 10000
10 | EB2 (Burkitt lymphoma, suspension) | 0.972 | > 1000 | 0.435 | 216 | 0.891 | 3920 | 0.971 | > 2000 | 0.797 | 3370 | 0.99 | > 10000
11 | EB-3 (Burkitt lymphoma, suspension) | 0.864 | > 1000 | 0.608 | 666 | 0.734 | 1320 | 0.984 | > 2000 | 0.944 | > 8000 | 0.984 | > 10000
12 | EC-GI-10 (oesophagus, adherent) | 0.974 | > 1000 | 0.846 | 3680 | 0.704 | 934 | 0.713 | 497 | 0.977 | > 8000 | 0.986 | > 10000
13 | ES1 (Ewing sarcoma, adherent) | 0.951 | > 1000 | 0.39 | 160 | 0.666 | 719 | 0.698 | 445 | 0.904 | > 8000 | 0.979 | > 10000
14 | ES5 (Ewing sarcoma, adherent) | 0.92 | > 1000 | 0.219 | 41.8 | 0.597 | 479 | 0.274 | 25.6 | 0.963 | > 8000 | 0.956 | > 10000
15 | ES7 (Ewing sarcoma, adherent) | 0.827 | 633 | 0.329 | 105 | 0.491 | 236 | 0.455 | 94.1 | 0.887 | > 8000 | 0.979 | > 10000
16 | ES8 (Ewing sarcoma, adherent) | 0.725 | 257 | 0.4 | 174 | 0.706 | 906 | 0.513 | 135 | 0.966 | > 8000 | 0.985 | > 10000
17 | ES-2 (ovary, adherent) | 0.818 | 480 | 0.344 | 126 | 0.99 | > 4000 | 0.539 | 157 | 0.972 | > 8000 | 0.991 | > 10000
18 | EW-11 (Ewing sarcoma, adherent) | 0.859 | > 1000 | 0.415 | 174 | 0.533 | 315 | 0.506 | 131 | 0.952 | > 8000 | 0.969 | > 10000
19 | EW-16 (Ewing sarcoma, adherent) | 0.899 | > 1000 | 0.434 | 209 | 0.733 | 1190 | 0.59 | 224 | 0.93 | > 8000 | 0.934 | > 10000
20 | EW-18 (Ewing sarcoma, suspension) | 0.892 | > 1000 | 0.329 | 103 | 0.765 | 1560 | 0.668 | 380 | 0.971 | > 8000 | 0.97 | > 10000
21 | Farage (B-cell lymphoma, suspension) | 0.67 | 168 | 0.427 | 210 | 0.992 | > 4000 | 0.396 | 68.6 | 0.957 | > 8000 | 0.993 | > 10000
22 | HCC1187 (breast, suspension) | 0.975 | > 1000 | 0.819 | 2730 | 0.838 | 2510 | 0.591 | 219 | 0.948 | > 8000 | 0.988 | > 10000

Row | Cell Line | AUC (MG-132) | IC50 (MG-132) [nM] | AUC (AR-42) | IC50 (AR-42) [nM] | AUC (GDC0941) | IC50 (GDC0941) [nM] | AUC (CEP-701) | IC50 (CEP-701) [nM] | AUC (Pazopanib) | IC50 (Pazopanib) [nM] | AUC (SB 216763) | IC50 (SB 216763) [nM]
23 | HCC1500 (breast, adherent) | 0.953 | > 1000 | 0.526 | 378 | 0.949 | > 4000 | 0.965 | > 2000 | 0.943 | > 8000 | 0.983 | > 10000
24 | HCC2998 (large intestine, adherent) | 0.74 | 296 | 0.673 | 959 | 0.935 | > 4000 | 0.914 | > 2000 | 0.988 | > 8000 | 0.987 | > 10000
25 | HSC-39 (stomach, suspension) | 0.906 | > 1000 | 0.647 | 765 | 0.565 | 367 | 0.361 | 54.7 | 0.891 | 7030 | 0.958 | > 10000
26 | HT (B-cell lymphoma, suspension) | 0.821 | 517 | 0.381 | 155 | 0.752 | 1230 | 0.802 | 889 | 0.987 | > 8000 | 0.99 | > 10000
27 | HUTU-80 (digestive system, adherent) | 0.786 | 355 | 0.367 | 147 | 0.91 | 3970 | 0.476 | 109 | 0.664 | 1300 | 0.991 | > 10000
28 | IMR-5 (neuroblastoma, adherent) | 0.992 | > 1000 | 0.345 | 129 | 0.921 | > 4000 | 0.743 | 538 | 0.983 | > 8000 | 0.984 | > 10000
29 | IST-SL1 (small cell lung carcinoma, semi-adherent) | 0.694 | 224 | 0.263 | 65.7 | 0.938 | > 4000 | 0.508 | 132 | 0.978 | > 8000 | 0.842 | 7310
30 | JURL-MK1 (chronic myeloid leukaemia, suspension) | 0.889 | > 1000 | 0.426 | 201 | 0.942 | > 4000 | 0.496 | 122 | 0.96 | > 8000 | 0.987 | > 10000
31 | JiyoyeP-2003 (Burkitt lymphoma, suspension) | 0.882 | 837 | 0.421 | 200 | 0.952 | > 4000 | 0.621 | 257 | 0.991 | > 8000 | 0.991 | > 10000
32 | K5 (thyroid, adherent) | 0.879 | 952 | 0.594 | 572 | 0.586 | 425 | 0.435 | 83.8 | 0.976 | > 8000 | 0.966 | > 10000
33 | KELLY (neuroblastoma, adherent) | 0.737 | 274 | 0.398 | 173 | 0.776 | 1440 | 0.397 | 67 | 0.983 | > 8000 | 0.958 | > 10000
34 | KM-H2 (Hodgkin lymphoma, suspension) | 0.686 | 189 | 0.984 | > 5120 | 0.992 | > 4000 | 0.962 | > 2000 | 0.981 | > 8000 | 0.985 | > 10000
35 | KMOE-2 (acute myeloid leukaemia, suspension) | 0.815 | 475 | 0.369 | 146 | 0.715 | 935 | 0.491 | 118 | 0.99 | > 8000 | 0.988 | > 10000
36 | KNS-42 (glioma, adherent) | 0.456 | 46.4 | 0.673 | 1070 | 0.9 | > 4000 | 0.888 | > 2000 | 0.918 | > 8000 | 0.981 | > 10000
37 | KNS-81-FD (glioma, adherent) | 0.721 | 337 | 0.61 | 714 | 0.775 | 2180 | 0.762 | 964 | 0.924 | > 8000 | 0.975 | > 10000
38 | KY821 (leukaemia, suspension) | 0.992 | > 1000 | 0.565 | 470 | 0.886 | 3420 | 0.626 | 264 | 0.98 | > 8000 | 0.988 | > 10000
39 | L-540 (Hodgkin lymphoma, suspension) | 0.703 | 215 | 0.977 | > 5120 | 0.935 | > 4000 | 0.352 | 51.2 | 0.968 | > 8000 | 0.988 | > 10000
40 | LAN-6 (neuroblastoma, adherent) | 0.744 | 362 | 0.862 | > 5120 | 0.944 | > 4000 | 0.821 | 1460 | 0.982 | > 8000 | 0.96 | > 10000
41 | LB771-HNC (head and neck, adherent) | 0.531 | 77.6 | 0.679 | 1150 | 0.707 | 1120 | 0.901 | > 2000 | 0.919 | > 8000 | 0.933 | > 10000
42 | LB831-BLC (bladder, adherent) | 0.704 | 237 | 0.627 | 723 | 0.859 | 3420 | 0.843 | 1450 | 0.685 | 1660 | 0.911 | > 10000
43 | LB2241-RCC (kidney, adherent) | 0.646 | 167 | 0.776 | 2300 | 0.518 | 282 | 0.512 | 135 | 0.949 | > 8000 | 0.818 | 6520
